{
  "source": "PubChem BioAssay AID624417",
  "about": "(National Center for Advancing Translational Sciences (NCATS), 2012)",
  "note": "Screen size: about 410,000 compounds; about 6,400 (1.6%) were called active. Inconclusive means that the source gave no clear call. Such entries were picked first, then a sample of the others. Calls come from the whole dose curve; as a rule, active = well fitted inhibition curve with a large enough effect; inconclusive = small, poorly fitted or top-dose-only effect; inactive = no such curve, though single readings can be large or run the other way. No potency is given beside an inconclusive call; the fits are too rough. % is set by controls: 0 for no effect and ±100 for the full control effect; potency is the fitted concentration of half-maximal effect; tags give direction and shape of the fitted curve.",
  "data": [
    {"biological_target": "Glucagon-like peptide 1 receptor (Homo sapiens) (UniProt P43220)", "sequence (P43220 whole entry, looked up)": "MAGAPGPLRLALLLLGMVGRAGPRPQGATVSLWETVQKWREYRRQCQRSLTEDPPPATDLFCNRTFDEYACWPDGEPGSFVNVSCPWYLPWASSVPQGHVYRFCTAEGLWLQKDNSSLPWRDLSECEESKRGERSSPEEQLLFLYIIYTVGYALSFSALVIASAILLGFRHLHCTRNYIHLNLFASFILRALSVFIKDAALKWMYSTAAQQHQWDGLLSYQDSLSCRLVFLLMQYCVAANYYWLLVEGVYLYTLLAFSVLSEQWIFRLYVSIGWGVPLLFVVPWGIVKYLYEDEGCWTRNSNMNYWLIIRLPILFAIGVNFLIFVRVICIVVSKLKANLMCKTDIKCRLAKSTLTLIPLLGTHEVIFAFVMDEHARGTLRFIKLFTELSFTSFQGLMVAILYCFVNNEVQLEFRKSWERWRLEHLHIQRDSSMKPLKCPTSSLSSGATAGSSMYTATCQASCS", "assay": "qHTS of GLP-1 Receptor Inverse Agonists (Inhibition Mode); note: nearly all actives have a fitted effect of over 55% in size", "details": "HEK293 GLP-1R CRE-luciferase, luminescence, 24 h, GLP-1R form is constitutively active; activity change, negative = inhibition: at 38.3 µM (top of the series) unless noted", "in_short": "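Readout was luciferase luminescence, measured 12 min after detection reagent at room temperature. Beforehand, GLP-1R reporter HEK293 cells had sat 12 h, then received compounds for 24 hr at 37 deg C.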", "values": [
      {"smiles": "Cn1nc(C(=O)NCc2ccccc2)c2c1-c1ccccc1S(=O)(=O)C2", "Potency": "inconclusive [inhibitor, partial curve, poor fit]"},
      {"smiles": "COc1ccc(Cn2nnnc2C(c2cccs2)N2CCN(c3ccccc3)CC2)cc1", "note": "(configuration not stated)", "Potency": "inconclusive [inhibitor, partial curve, poor fit]"},
      {"smiles": "O=C(CN1C(=O)NC(c2ccccc2)(c2ccccc2)C1=O)N1CCN(c2ccccc2F)CC1", "Potency": "inconclusive [inhibitor, partial curve, poor fit]"},
      {"smiles": "COc1ccc(NC(=O)C(C2CC2)n2c(=O)c(-c3cc4ccccc4[nH]3)nc3ccccc32)cc1", "note": "(configuration not stated)", "Potency": "inconclusive [inhibitor, partial curve, poor fit]"},
      {"smiles": "O=C(Cn1c(O)c(/C=C2\\C=Nc3ccc(Br)cc32)sc1=O)N1CCCC1", "Potency": "inconclusive [inhibitor, partial curve, poor fit]"},
      {"smiles": "CCOC(=O)C1=CCC(c2cc3ccc(OC)cc3n2C(=O)OC(C)(C)C)NC1", "note": "(configuration not stated)", "Potency": "inconclusive [inhibitor, partial curve]"},
      {"smiles": "CC(Oc1ccc(F)cc1)C(=O)Nc1ccccc1N1CCCCC1", "note": "(configuration not stated)", "Potency": "inconclusive [inhibitor, partial curve, poor fit]"},
      {"smiles": "CCC(C(=O)NC1CCCCC1)n1c(SCc2cccc(F)c2)nc2ccncc21", "note": "(configuration not stated)", "Potency": "inconclusive [inhibitor, partial curve, poor fit]"},
      {"smiles": "Cn1c(=O)c2cc(NC(=O)CCc3ccccc3)ccc2n1-c1ccccc1F", "Potency": "inconclusive [inhibitor, partial curve, poor fit]"},
      {"smiles": "Cc1cccc(COc2ccccc2C(=O)N(C)CC(=O)Nc2cccc(F)c2)c1", "Potency": "inconclusive [inhibitor, single point]"},
      {"smiles": "COc1ccc(C2/C=C\\CN(C(=O)OCC3c4ccccc4-c4ccccc43)CC(=O)N2Cc2cccc(F)c2)cc1", "note": "(configuration not stated)", "Potency": "inconclusive [inhibitor, single point]"},
      {"smiles": "CN(C(=O)c1cncc(Br)c1)C1C2CC3CC(C2)CC1C3", "note": "(configuration not stated)", "Potency": "inconclusive [inhibitor, single point]"},
      {"smiles": "O=C(CCNS(=O)(=O)c1ccc2nsnc2c1)N1CCN(c2ccncc2)CC1", "Potency": "inconclusive [inhibitor, partial curve]"},
      {"smiles": "O=C(COc1ccc(Cl)cc1Cl)Nc1ccccn1", "Potency": "inconclusive [inhibitor, single point]"},
      {"smiles": "CCC1CCCCN1C(=O)c1c(-c2ccccc2)noc1C", "note": "(configuration not stated)", "Potency": "inconclusive [inhibitor, partial curve]"},
      {"smiles": "COc1ccc(OCc2cc(C(=O)N(C)C3CCOCC3)no2)c2ccccc12", "Potency": "inconclusive [inhibitor, single point]"},
      {"smiles": "CC(C)(C)C(=O)Nc1nnc(SCc2ccc(F)cc2)s1", "Potency": "inconclusive [inhibitor, full curve, poor fit]"},
      {"smiles": "Cc1cc(C)cc(NC(=O)c2cnn(-c3ccccc3)c2C2CCNCC2)c1", "Potency": "inconclusive [inhibitor, partial curve, poor fit]"},
      {"smiles": "COCCCNC(=O)/C=C/c1ccc(OCc2c(F)cccc2Cl)cc1", "Potency": "inconclusive [inhibitor, partial curve, poor fit]"},
      {"smiles": "CC(=O)N(c1cccc(Br)c1)C1C=CS(=O)(=O)C1", "note": "(configuration not stated)", "activity change, negative = inhibition": "inactive: 17.7%"},
      {"smiles": "S=C(c1ccc2c(c1)OCO2)N1CCOCC1", "activity change, negative = inhibition": "inactive: 3.82%"},
      {"smiles": "CCCOc1ccc(C2=CSC3=NCCN23)cc1[N+](=O)[O-]", "Potency": "inconclusive [inhibitor, full curve, poor fit]"},
      {"smiles": "Oc1ccc2ccccc2c1/C=C/c1ccc2c(Br)cc(Br)c(O)c2n1", "Potency": "inconclusive [inhibitor, partial curve, poor fit]"},
      {"smiles": "CN=c1sc(C(=O)Nc2cccc(Cl)c2)cc(=O)n1C", "activity change, negative = inhibition": "inactive: -26.1%"},
      {"smiles": "COc1ccc(N2CCN(C(CNC(=O)C(=O)NCc3ccncc3)c3ccco3)CC2)cc1", "note": "(configuration not stated)", "Potency": "inconclusive [inhibitor, partial curve, poor fit]"},
      {"smiles": "O=C(NCc1ccc(F)cc1)C1CCN(C(=O)Nc2ccc(F)cc2)CC1", "Potency": "inconclusive [inhibitor, single point]"},
      {"smiles": "O=C(NCCCCCCCN1CCCCCCC1)C(C1CCCCC1)C1CCCCC1", "Potency": "inconclusive [inhibitor, partial curve, poor fit]"},
      {"smiles": "CCOc1ccccc1Oc1nc(C)nc2c1oc1ccccc12", "Potency": "inconclusive [inhibitor, full curve, poor fit]"},
      {"smiles": "N#Cc1c(C(F)(F)F)cc(-c2cccs2)nc1SCc1ccccc1F", "activity change, negative = inhibition": "inactive: 4.31%"},
      {"smiles": "COc1cc(NC(=O)CC[C@H]2O[C@@H](n3cnc4c(NC(=O)c5ccccc5)ncnc43)[C@H](O)[C@@H]2O)cc(OC)c1OC", "activity change, negative = inhibition": "inactive: 21.5%"},
      {"smiles": "CC(C)=CCC/C(C)=C/COc1c2occc2cc2ccc(=O)oc12", "Potency": "inconclusive [inhibitor, single point]"},
      {"smiles": "CC1CCc2c(sc3nc(CN4CCOCC4)nc(N4CCc5ccccc5C4)c23)C1", "note": "(configuration not stated)", "Potency": "inconclusive [inhibitor, partial curve, poor fit]"},
      {"smiles": "CCCOC(=O)c1c(NC(=O)C2C3C=CC(C3)C2C(=O)O)sc2c1CCC(C)C2", "note": "(configuration not stated)", "Potency": "inconclusive [inhibitor, partial curve, poor fit]"},
      {"smiles": "COc1cc(-c2cc(NC(C)=O)c3ncc(-c4ccc(C(C)=O)cc4)n3c2)cc(OC)c1OC", "Potency": "inconclusive [inhibitor, partial curve, poor fit]"},
      {"smiles": "CCOC(=O)CC1(NC(=O)c2cc(COc3cccc(OC)c3)on2)CCCCC1", "Potency": "inconclusive [inhibitor, partial curve, poor fit]"},
      {"smiles": "COc1ccc(CN2CCN(Cc3ccc4cc(F)ccc4n3)CC2CCO)c(C)c1C", "note": "(configuration not stated)", "Potency": "inconclusive [inhibitor, partial curve, poor fit]"},
      {"smiles": "COc1ccc([C@H]2CC(=O)C=C(c3ccccc3)C2)cc1", "Potency": "inconclusive [inhibitor, single point]"}
    ]}
  ]
}
